# Reference: PMC12136788
# Some of the results follow.
# B1: chr2:201680209:201680210:+_ENSG00000082153_ENST00000409600|hu_mus|FALSE|FALSE (ssRNA)
# RNA: GGGAGUUCUACAGUCCGACGAUCGUCAUCUGCCAGUGUACCACCCGGGGCCAGCAUUCCGCCAGCCACCAGAAUGUCAAAGAGUGUUUCUGCAUAGCGGCGGUAGUCAAGUUUUGCUCCAGAAGCAUCAAGAAACUUAGCUACCAACAGAGGAUUGAGCAUCA
# B2: chr1:58468927:58468928:-_ENSMUSG00000026034_ENSMUST00000148330|mus_mus|mus_mus_mus_hu_False|78_98 (ssRNA)
# RNA: GGGAGUUCUACAGUCCGACGAUCAAUUACUGAAAAAUGAAAGAUGUACCUUAGCUAGGCCAUGUAUGAACCAAAUUACCCAAACAAAAUAAACAUGGCAAUAUAAAAAUGUUAAGAAUUUACAAAGCUGUACAAAAUAACUUACAACAGAGGAUUGAGCAUCA
# B3: 126170259_126170379_3002_3pUTR_ENSMUSG00000042500_ENSMUST00000084289|mouse|control|control (ssRNA)
# RNA: GGGAGUUCUACAGUCCGACGAUCCAGAAAACACAAUCUAUGAGUAUCUAUUUCUUUAACAAAAAAACCCAACUGGCUCAAUUUUGUUGAUGUAUCAGACAGGGCUGCAGAGUAGACUCAGUGCAACCAUUCUGAGCUGCUGGUCAACAGAGGAUUGAGCAUCA
# B4: chr7:888175:888176:+_ENSG00000164828_ENST00000456758|hu_hu|FALSE|FALSE (ssRNA)
# RNA: GGGAGUUCUACAGUCCGACGAUCUUUGUAAUUUUCUGAUUCAUAACUGAGCUUCAUUAAAACCACUUGAAAAAGUUGAACUAAAAAUGAUGAAAAAGAUGAUGCAGUGUAUCUGGCCAGCCACAAAAUCCUAUUCACGUAGAACAACAGAGGAUUGAGCAUCA
# B5: 36354044_36354164_315_CDS_ENSG00000092847_ENST00000373204|human|control|control (ssRNA)
# RNA: GGGAGUUCUACAGUCCGACGAUCGUGGUACACGUCGAUCUUAGGGAUGUCCACCUCAAAGUAAUUGGCCAGGAGCUUGAUUGGUUUCCCCACAGUGCCAAUGCCAGGCCGGCGAGGUGCCUGGAACACCUGCUGCAGGGGGGGCAACAGAGGAUUGAGCAUCA
# B6: chr1:54531653:54531654:-_ENSMUSG00000073678_ENSMUST00000097739|mus_mus|motif|central (ssRNA)
# RNA: GGGAGUUCUACAGUCCGACGAUCACACAGAAGACAAACUCCUUCCAGAGGACAGAGCGUCCUGAAGCCAGCUCUCAUAAACGGCCCUCCUGCUAAUUUAUCCACAGUCCCCAACAGUUACUUAGAUAAUCAUUACUCGAUCAACAACAGAGGAUUGAGCAUCA
# B7: 99969957_99978953_1055_CDS_ENSG00000164024_ENST00000296411|human|control|control (ssRNA)
# RNA: GGGAGUUCUACAGUCCGACGAUCCUCAAUUGUAAAUACAUGGCCCGACUUCAUCACUCCAACUGCUUUAUUUUUAGCAUAGUGGGGUACAUUGGGAGCUGUAUGAAAAAGCUUGUGGAUUCCAUGCCCACAAUAGCUUCGAACCAACAGAGGAUUGAGCAUCA
# B8: chr10:60145988:60145989:+_ENSG00000108064_ENST00000373895|hu_hu|FALSE|FALSE (ssRNA)
# RNA: GGGAGUUCUACAGUCCGACGAUCAGAACUUACAGGUUUCUUUGGACAACUUGCCAAGACAGAUGAAAACCACCUCGGUAAAUACACAAAACUGAAGGGGGAGCGCAGUCGACUUCCACAGCCGGUGCACAGCUCUGCUCCAGACAACAGAGGAUUGAGCAUCA
# B9: chr2:44436386:44436387:+_ENSG00000138032_ENST00000378551|hu_hu|motif|central (ssRNA)
# RNA: GGGAGUUCUACAGUCCGACGAUCCUCUGAAUCUUUUUUCACCGCUUCAUCUGAGACCUUGGGAGCAUUUGAAAAGCAAACGGGUACAAUACUCAUGUUAUCUCGACUUCCCUUGUGUAAACAAGUGUCCACUACCCAAUUGCACAACAGAGGAUUGAGCAUCA
# B10: chr13:74460584:74460585:-_ENSMUSG00000021577_ENSMUST00000022062|mus_mus|FALSE|FALSE (ssRNA)
# RNA: GGGAGUUCUACAGUCCGACGAUCGUUUCAUCAGUAGGAGCGGAUAGCAGGAGGUACGGUGGCACAGUCAGCCUCAUUCAAGGUCUUGUCGAUAACAGGUCUGUACUCCAAAGUAACCUUGCCAGUCUUGAUGUCCACAUAUGACAACAGAGGAUUGAGCAUCA
# B11: chr17:30807540:30807541:+_ENSG00000108671_ENST00000457654|hu_mus|FALSE|FALSE (ssRNA)
# RNA: GGGAGUUCUACAGUCCGACGAUCGUUCUGAAUAGUUUCCAGAGCAGCUUCAUAAGUUUUAUCUACUGGGGGUUCAUCGAAAAUGAUCAGGACACCCUCCCCCUGGUCCAAAAUCCCAUGAAACUUCUUGUCAAGAAUCAUCUGCAACAGAGGAUUGAGCAUCA
# B12: chr20:57485784:57485785:+_ENSG00000087460_ENST00000306090|hu_mus|FALSE|FALSE (ssRNA)
# RNA: GGGAGUUCUACAGUCCGACGAUCGUCACGGCAGUCGUUGAAGACACGGCGGAUGUUCUCAGUGUCCACGGCGCAGGUAAAGUGAGGGUAGCAGUAGUGGCGCCCAUCUCCACUAGCAGUGCUGAUUCUCAGAAACUCAUCCCGCAACAGAGGAUUGAGCAUCA
# B13: chr13:99559765:99559766:-_ENSMUSG00000041685_ENSMUST00000040340|mus_mus|FALSE|FALSE (ssRNA)
# RNA: GGGAGUUCUACAGUCCGACGAUCCUGAACUUCCUUUAUUAAUUCCUGUAAUUUUCUAACAAGAUCCAAAUGACAAUUUGCUAAUUUCUCUGUAGAUGUUUUGAAUACAUCCCACAUUGGUGCAAAUGUUCCAAGUUGUGAAUACAACAGAGGAUUGAGCAUCA
# B14: 28194310_28195255_3168_CDS_ENSMUSG00000024219_ENSMUST00000088027|mouse|control|control (ssRNA)
# RNA: GGGAGUUCUACAGUCCGACGAUCGAUGAUCUCGUAGGUCAGGUUCACAUCCACUGUGCUGAAAACGUGGCAGUAGUGGUGGCUCGUCUGCAGGUCCUUGGUGAUGUACGCGAAGGUACACAGGUCCUCUGGGUCCUGCGCGGCCAACAGAGGAUUGAGCAUCA
# Target: T1, UNK ZnF1-3 (human, UniProt Q9C0B0 31-174)
# T1 sequence: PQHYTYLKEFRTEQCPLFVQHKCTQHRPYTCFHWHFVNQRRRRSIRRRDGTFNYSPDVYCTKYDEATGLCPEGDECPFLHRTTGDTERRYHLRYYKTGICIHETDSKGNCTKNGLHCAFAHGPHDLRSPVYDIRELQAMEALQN
# Assay: nsRBNS (natural sequence RNA bind-n-seq); RBNS binding buffer (assumed for nsRBNS): 25 mM Tris pH 7.5, 150 mM KCl, 3 mM MgCl2, 0.01% Triton X-100, 500 ug/ml BSA, 20 U/ml SUPERase-In, 4 C; UNK is unkempt and MSI1 is Musashi-1; names of the RNAs are library labels; protein concentration not given here; high values mean tight binding
row,Binder,binding signal [enrichment R]
1,B1,0.598
2,B2,2.84
3,B3,1.13
4,B4,1.3
5,B5,0.865
6,B6,1.62
7,B7,1.03
8,B8,0.929
9,B9,0.895
10,B10,0.827
11,B11,0.785
12,B12,0.942
13,B13,0.714
14,B14,0.804
